Data on 55 compounds can be found in ChEMBL document CHEMBL4888484, “Replenishing the malaria drug discovery pipeline: Screening and hit evaluation of the MMV Hit Generation Library 1 (HGL1) against asexual blood stage Plasmodium falciparum ,using a nano luciferase reporter read-out” (2022).

Out of some 150,000 compounds screened, about 540 (0.36%) showed an effect of 50% or more. The list shows a part of the results.

For orientation: % Inhibition means the change of the read-out against control, counted positive when it falls.

This assay relates to Plasmodium falciparum. The assay can be described thus: Primary screen in NF54 nanoGlo assay, in single point, at 2uM, 72h; a lower Z score goes with more inhibition. It counts as functional, Erythrocyte. The note with it: timepoint 72 hour.
With `Cc1ccc2c(C3=CCN(C(=O)c4cnc5[nH]c(=O)[nH]c(=O)c5c4)CC3)c[nH]c2c1`, the “% Inhibition” value worked out at 6% and the Z score is listed as -1.15.
In the case of `Cc1cnc(C(=O)N[C@H]2CCC(=O)NC2=O)cn1`, the “% Inhibition” value came out at 4% and the Z score is on record as -0.69.
`CCn1nccc1C(=O)NCCc1ccncc1`: the “% Inhibition” value is given as -8% and the Z score came to 0.9.
The matching figures for `COc1cc(-c2ccc(-c3cnco3)cc2)cc(OC)c1OC`: -17% and 1.62.
Consider `COc1ccc(CN(C(=O)NC2CCCCC2)C(C)C)cc1OS(C)(=O)=O`, for which the “% Inhibition” value is 1% and the Z score is reported as -0.25.
Consider `C[C@@H](CNc1nccs1)c1ccc(S(C)(=O)=O)cc1`, for which the “% Inhibition” value is -1% and the Z score is recorded as 0.19.
Turning to `Cn1c(NC(=O)C(C)(C)S(=O)(=O)C2CC2)nc2cccc(Cl)c21`, the “% Inhibition” value was found to be 6% and the Z score is -0.62.
For the compound `CN(C)Cc1cc(NC(=O)c2cc[nH]c(=O)c2)ccc1Cl`, the “% Inhibition” value was 0% and the Z score was 0.06.
For `N#Cc1c[nH]c(C(=O)NC(c2ccccn2)[C@H]2C[C@@H](O)C2)c1` (stereo not given in full), the “% Inhibition” value came to 3% and the Z score is recorded as -0.55.
The matching figures for `C#CCOCCN(C)Cc1cnc(CC)s1`: -2% and 0.17.
Turning to `CCCN(CC(=O)OC)Cc1csc(-c2ccccn2)n1`, the “% Inhibition” value was -10% and the Z score was determined as 1.23.
For `O=C(Nc1cnc(Oc2ccccc2F)nc1)Nc1ccccc1Cl`, the “% Inhibition” value stood at 3% and the Z score is recorded as -0.62.
For `c1ccc(-n2cccc2-c2nnc3cnccn23)nc1`, in that order: 1% and -0.17.
In the case of `COc1nc(N)nc(N(C)C(=O)c2ccccc2)n1`, the “% Inhibition” value was 8% and the Z score is reported as -1.59.
Take `COc1cccc(-c2cc3n(n2)CCCN(Cc2cccc(F)c2)C3)c1`: the “% Inhibition” value was -13% and the Z score was 1.42.
Consider `Cn1nccc1[C@@H]1CN(C(=O)NCc2ccon2)CCO1`, for which the “% Inhibition” value was -3% and the Z score is 0.43.
For the compound `Fc1ccc(CN2CC(n3ccnn3)C2)cc1`, the “% Inhibition” value was 4% and the Z score is -0.59.
The matching figures for `Cc1ccc(CNC(=O)CN2CCN(C(=O)Nc3ccc(Br)cc3)CC2=O)o1`: -14% and 1.76.
With `CN(C)c1ccc(OCCCN2C(=O)CNC2=O)cc1`, the “% Inhibition” value is reported as -35% and the Z score is 4.13.
Regarding `COC1(OC)CC2(CN(c3ncc(C#N)cc3Cl)[C@H]2C(C)C)C1`, the “% Inhibition” value is reported as -2% and the Z score came to 0.21.
The matching figures for `CC(C)CN(CCC(=O)Nc1ccc(F)cc1)c1nc(-c2ccc(F)cc2)nc2cc(Cl)ccc12`: 0% and -0.07.
`CCCCCc1cn(C[C@H]2CCS(=O)(=O)C2)nn1`: the “% Inhibition” value was -19% and the Z score stood at 2.41.
For `Cc1cccc(NC(=O)c2c[nH]c3nc(C)ccc3c2=O)c1`, in that order: 4% and -0.5.
On to `Cc1cc(C)cc(OCC(=O)NCCCN(C)C)c1`, for which the “% Inhibition” value amounted to 37% and the Z score is listed as -4.18.
For `COc1cc(NC(=O)N[C@H]2C[C@@](CO)(c3ccccc3)C2)n(C)n1`, in that order: -8% and 1.47.
For `CC(=O)N1CC(OCC(=O)Nc2ccc(F)cc2Nc2ccccc2F)C1`, in that order: -16% and 2.77.
On to `Cc1cc(C)nc(N2CCC[C@H](C(=O)Nc3ccc(N4CCCS4(=O)=O)cc3)C2)n1`, for which the “% Inhibition” value turned out to be 5% and the Z score was -0.93.
As for `Cc1ccnc(N2CCC[C@@]3(CCC(=O)N(Cc4cnc(C)cn4)C3)C2)c1`, the “% Inhibition” value is -8% and the Z score is 1.58.
For `CCCOCCCNc1c(-c2ccc(OC)c(OC)c2)cnc2ncnn12`, in that order: 0% and 0.03.
The matching figures for `COc1ccc(-c2onc(C)c2C(=O)NCCOc2ccccc2)cc1`: 38% and -5.08.
For the compound `COCc1nc([C@H]2CCCN(CC(N)=O)C2)n(CC(C)(C)O)n1`, the “% Inhibition” value was -13% and the Z score is reported as 2.24.
With `Cc1nnc(CN(C)Cc2cc(Cl)ccc2Cl)n1C`, the “% Inhibition” value is recorded as -17% and the Z score worked out at 3.44.
With `O=S(=O)(c1ccccc1)N1CC[C@H](c2nc(-c3ccccc3)no2)C1`, the “% Inhibition” value was -5% and the Z score was 0.95.
For `Nc1cc(C(=O)O)cc(C(F)(F)F)c1`, in that order: -2% and 0.33.
Turning to `O=C(CCn1cncn1)Nc1ccccn1`, the “% Inhibition” value is listed as -11% and the Z score was found to be 1.54.
The matching figures for `CC[C@H](C)NC(=O)Cn1nc2ccc(C(=O)NCc3ccccc3)cn2c1=O`: -24% and 2.07.
For `Cc1ccc(CS(=O)(=O)Cc2nnnn2-c2ccccc2)cc1`, in that order: -17% and 1.67.
Consider `CC(=O)Nc1ccc(S(=O)(=O)N2CC(OCc3cccc(F)c3)C2)cc1`, for which the “% Inhibition” value is -13% and the Z score is reported as 2.42.
For `Fc1ccc(NCc2cc(-c3ccccc3)[nH]n2)c(F)c1`, in that order: -6% and 0.55.
`Cc1sc(-c2ccn[nH]2)cc1NC(=O)c1ccc(F)cc1`: the “% Inhibition” value is reported as -4% and the Z score turned out to be 0.36.
For `C[C@@H](c1ccc(S(C)(=O)=O)cc1)N1CCC(n2cncn2)CC1`, in that order: -8% and 1.46.
The matching figures for `CCCN(CC(=O)Nc1cccc(S(=O)(=O)N2CCOCC2)c1)S(=O)(=O)c1ccc(Cl)c(Cl)c1`: -15% and 2.48.
Turning to `CC[C@H]1c2ccsc2CCN1CCS(=O)(=O)c1ccc(Cl)cc1`, the “% Inhibition” value is listed as -11% and the Z score turned out to be 1.5.
In the case of `CCN(C[C@H]1CCOC1)C(=O)CCc1nc(-c2ccsc2)no1`, the “% Inhibition” value is reported as -3% and the Z score is recorded as 0.36.
For `CCc1cc(Cl)cnc1NC(=O)c1cccn(CC(C)C)c1=O`, in that order: -6% and 1.14.
On to `CN(CC1CCCC1O)C(=O)c1cccc2ccc(O)nc12` (stereo not given), for which the “% Inhibition” value stood at 0% and the Z score is given as -0.03.
As to `COc1ccccc1[C@H]1CN(C(=O)c2ccc3cccnc3c2)C[C@@H]1C(=O)O`, the “% Inhibition” value is recorded as -4% and the Z score came to 0.68.
As for `CN(C(=O)c1cccn(Cc2cccc(F)c2)c1=O)c1ccccc1`, the “% Inhibition” value is on record as -21% and the Z score is reported as 2.72.
For `CCCCc1noc(CS(=O)(=O)Cc2cccc3ccccc23)n1`, in that order: -6% and 1.
`Cc1ccc(S(C)(=O)=O)cc1NC(=O)N1CCCC[C@@H]1CN1CCCC1`: the “% Inhibition” value is given as -11% and the Z score was 1.43.
The matching figures for `C[C@@H](c1ccccn1)N(Cc1ccccc1)C(=O)C1CCCC1`: -13% and 1.74.
Consider `CNS(=O)(=O)CC(=O)N1CCC(c2ccsc2)CC1`, for which the “% Inhibition” value is -8% and the Z score is listed as 0.76.
The matching figures for `Cc1cc(C)cc(C(=O)N2C[C@@H]3CC[C@H]2CN(Cc2cscn2)C3)c1`: -6% and 1.03.
Take `O=C(Nc1ccc2c(c1)OCCO2)c1cccc2c1C(=O)N(C1CCCCC1)C2`: the “% Inhibition” value was 10% and the Z score is -1.33.
As to `O=C1ON=C2C3CC4CC12CC1(C3)C(=O)ON=C41`, the “% Inhibition” value is given as -20% and the Z score stood at 2.58.
